# The campaign covered roughly 420,000 compounds. About 50,000 (12%) were called active. This list was built around the results that the source calls inconclusive (neither active nor inactive); the mix of calls is not that of the screen. The call rests on the fitted dose curve; in most records, active means well fitted inhibition curve with a large enough effect; inconclusive means small, poorly fitted or top-dose-only effect; inactive means flat fitted curve, though single readings scatter. No potency is given beside an inconclusive call; the fits are too rough.
# Assay: qHTS for Inhibitors of human tyrosyl-DNA phosphodiesterase 1 (TDP1): qHTS in cells in presence of CPT; further: nearly all actives have a fitted effect of over 55% in size
# Conditions: chicken DT40 Tdp1-/-;hTDP1 cells + 20 nM CPT, ATP luminescence, 48 h; activity change, negative = growth inhibition: at 46.2 µM (top of the series) unless noted
# Summary of the method: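 Cell growth measured by CellTiter-Glo luminescence after a minimum 48 h, 37 C compound exposure with 20 nM CPT in Tdp1-knockout DT40 cells stably expressing hTDP1, seeded 400/well; qHTS titration format.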
# On the % scale 0 is the no-effect control and ±100 the full control effect; potency means the concentration at half of the fitted maximal effect; tags describe the fitted curve by direction and shape.
Structure (SMILES),Potency,"activity change, negative = growth inhibition"
COc1cc(F)ccc1CN1CCC(C(=O)Nc2ccc(Oc3ccccc3)nc2)CC1,"inconclusive [inhibitor, single point]",–
Cn1cnc([N+](=O)[O-])c1Oc1cccc(O)c1,"inconclusive [inhibitor, single point]",–
Cc1ccc(C(=O)NCC(=O)OCc2cc(=O)n3ccsc3n2)cc1,inactive,–
O=c1[nH]c(CN2CCN(c3ccccc3O)CC2)nc2ccccc12,"inconclusive [inhibitor, single point]",–
C=C1CC2C(=O)N(Cc3ccccc3)C(C(=O)OCC)(C(=O)OCC)C1N2C(=O)OC(C)(C)C (centres undefined),"inconclusive [inhibitor, single point]",–
CCOC(=O)[C@]12CCCC=C1N(Cc1ccc(Cl)cc1Cl)C(=O)[C@H](CC(=O)NCc1ccc(OC)c(OC)c1)C2,"inconclusive [inhibitor, single point]",–
O=c1c(Br)c(Br)cnn1-c1ccccc1,active: 4.11 µM,–
COc1ccc(CCNC(=O)CC2Nc3ccccc3NC2=O)cc1OC (centres undefined),–,inconclusive: -34% [inhibitor]
O=C(CCc1nnc(Cc2ccc(-c3ccccc3)cc2)o1)NCCc1ccccn1,"inconclusive [inhibitor, partial curve]",–
CC1(C(=O)Nc2ccc(Cl)cc2)Cc2c(-c3cccc(C(N)=O)c3)ccnc2O1 (centres undefined),active: 3.66 µM,–
CCOC(=O)N1CCN(C(=O)c2ccccc2NC(=O)COc2ccccc2)CC1,"inconclusive [inhibitor, single point]",–
CCOCCn1c(CN2CCN(c3ccc(OC)cc3)CC2)nc2c1c(=O)n(C)c(=O)n2C,"inconclusive [inhibitor, partial curve]",–
CCCCCCCCNC1=CC(=O)CC(C)(C)C1,"inconclusive [inhibitor, single point]",–
O=C(CN1C(=O)NC2(CCCCCC2)C1=O)Nc1ccc([N+](=O)[O-])cc1,"inconclusive [inhibitor, single point]",–
CC(=O)c1cc(C#N)c(SCC(=O)OC(C)C)nc1C,"inconclusive [inhibitor, single point]",–
O=C(Nc1ccccn1)c1c(O)c2cccc3c2n(c1=O)CCC3,active: 14.6 µM,–
COc1cc(CCC(=O)Nc2ccc(C)c(S(=O)(=O)N(C)C)c2)cc(OC)c1OC,active: 14.6 µM,–
COc1ccc([N+](=O)[O-])cc1C(=O)NCCOc1ccc(Cl)cc1,inactive,–
CC(C)Cn1c(/C=C/c2ccco2)nc2ccccc21,"inconclusive [inhibitor, single point]",–
Cc1ccc(NC(=O)COC(=O)C2(CC(=O)NC(C)C)CCCC2)cc1C,inactive,–
Cc1ccc(C)c(SCC(=O)N(C)C2CCS(=O)(=O)C2)c1 (centres undefined),inactive,–
COc1nc(OC)nc(N2CCC(C(=O)NCC3CCCCC3)CC2)n1,inactive,–

Structure (SMILES),Potency,"activity change, negative = growth inhibition"
Cc1ccccc1CNC(=O)c1oc2c(c1C)-c1nn(Cc3ccc(Cl)cc3)cc1CC2,"inconclusive [inhibitor, single point]",–
O=C(Nc1nc2ccccc2s1)c1ccc(N2CCCCC2)c([N+](=O)[O-])c1,active: 23.1 µM,–
Cc1noc(N)c1C(=O)Nc1ccc(C(C)(C)C)cc1,"inconclusive [inhibitor, single point]",–
O=C(Nc1nnc(C2=COCCO2)o1)c1cccc(Br)c1,"inconclusive [inhibitor, single point]",–
Cc1ccc(NC(=O)NC(=O)N(c2ccccc2)S(C)(=O)=O)cc1,inactive,–
Cc1ccc(C2CC2C(=O)NNC(=S)Nc2cccc(C)c2)cc1 (centres undefined),"inconclusive [inhibitor, single point]",–
COCCNC(=S)N(CCc1c(C)[nH]c2ccc(F)cc12)Cc1ccc(C)cc1,"inconclusive [inhibitor, single point]",–
CCc1sc(C(=O)Nc2ncccc2O)cc1C,"inconclusive [inhibitor, single point]",–
C[C@H]1CN([C@@H](C)CO)C(=O)CCCn2nncc2CO[C@@H]1CN(C)C(=O)c1ccccc1,inactive,–
Cc1cc(Cl)ccc1NC(=O)COC(=O)CCNS(=O)(=O)c1ccccc1,inactive,–
O=c1c2ccccc2nc(SCc2nnc(-c3ccccc3)o2)n1-c1ccc(F)cc1F,"inconclusive [inhibitor, single point]",–
CC(C)(C)c1ccc(S(=O)(=O)NCc2ccc(C(=O)NCc3ccccn3)cc2)cc1,active: 20.6 µM,–
O=C(Cn1cnnn1)N[C@@H]1C(=O)N2C(C(=O)O)=C(CSc3nncs3)CS[C@H]12,inactive,–
CCNc1nc(NC(C)C)nc(Oc2ccc(OCc3ccccc3)nn2)n1,"inconclusive [inhibitor, single point]",–
COc1ccc(C(=O)NCc2ccccc2CN2CCCC2)cc1S(=O)(=O)Nc1ccc(C)cc1,"inconclusive [inhibitor, single point]",–
Cc1cc(-c2ccccc2)nc(N/N=C/c2ccc(N(C)C)cc2)n1,"inconclusive [inhibitor, single point]",–
CCOc1ccc(N(C)C(=O)CCc2nnc3ccc(N4CCC5(CC4)OCCO5)nn23)cc1,inactive,–
O=C(NCCc1nc2ccccc2[nH]1)/C(=C/c1ccc2c(c1)OCO2)NC(=O)c1ccc(Cl)cc1Cl,"inconclusive [inhibitor, single point]",–
O=C(OCc1c(-c2ccccc2)ncc2ccccc12)c1ccc(Cl)cc1Cl,"inconclusive [inhibitor, partial curve]",–
CC(C)CN(C(=O)CN1CCN(c2ccccc2F)CC1)c1c(N)n(CC(C)C)c(=O)[nH]c1=O,"inconclusive [inhibitor, full curve, poor fit]",–
CN(C)c1ccccc1C(=O)N1CCC(n2nccc2NC(=O)C2CC2)CC1,inactive,–
Cc1onc(-c2ccccc2Cl)c1C(=O)N(Cc1ccccc1)C(C)C,"inconclusive [inhibitor, single point]",–

# Source: PubChem BioAssay AID686979 (National Center for Advancing Translational Sciences (NCATS), 2013)
